Data: PubChem BioAssay AID488969 (Vanderbilt High Throughput Screening Facility, 2010)
In all, about 110,000 compounds were measured (“z-score”: median about -0.1, highest 2% from about 2 on). This is one part of the list.

target: Metabotropic glutamate receptor 8 (Rattus norvegicus) (UniProt P70579); assay: rat mGluR8 modulators via GIRK flux, primary screen, cell-based, thallium flux, HTS (AID 488969); conditions: HEK293 rat mGluR8, GIRK (G protein-gated inwardly rectifying potassium channel) thallium flux, FluoZin2; at 10 µM; stronger effect = higher value; submaximal glutamate (EC20) added with thallium
Sequence of UniProt P70579 (P70579 whole entry, looked up): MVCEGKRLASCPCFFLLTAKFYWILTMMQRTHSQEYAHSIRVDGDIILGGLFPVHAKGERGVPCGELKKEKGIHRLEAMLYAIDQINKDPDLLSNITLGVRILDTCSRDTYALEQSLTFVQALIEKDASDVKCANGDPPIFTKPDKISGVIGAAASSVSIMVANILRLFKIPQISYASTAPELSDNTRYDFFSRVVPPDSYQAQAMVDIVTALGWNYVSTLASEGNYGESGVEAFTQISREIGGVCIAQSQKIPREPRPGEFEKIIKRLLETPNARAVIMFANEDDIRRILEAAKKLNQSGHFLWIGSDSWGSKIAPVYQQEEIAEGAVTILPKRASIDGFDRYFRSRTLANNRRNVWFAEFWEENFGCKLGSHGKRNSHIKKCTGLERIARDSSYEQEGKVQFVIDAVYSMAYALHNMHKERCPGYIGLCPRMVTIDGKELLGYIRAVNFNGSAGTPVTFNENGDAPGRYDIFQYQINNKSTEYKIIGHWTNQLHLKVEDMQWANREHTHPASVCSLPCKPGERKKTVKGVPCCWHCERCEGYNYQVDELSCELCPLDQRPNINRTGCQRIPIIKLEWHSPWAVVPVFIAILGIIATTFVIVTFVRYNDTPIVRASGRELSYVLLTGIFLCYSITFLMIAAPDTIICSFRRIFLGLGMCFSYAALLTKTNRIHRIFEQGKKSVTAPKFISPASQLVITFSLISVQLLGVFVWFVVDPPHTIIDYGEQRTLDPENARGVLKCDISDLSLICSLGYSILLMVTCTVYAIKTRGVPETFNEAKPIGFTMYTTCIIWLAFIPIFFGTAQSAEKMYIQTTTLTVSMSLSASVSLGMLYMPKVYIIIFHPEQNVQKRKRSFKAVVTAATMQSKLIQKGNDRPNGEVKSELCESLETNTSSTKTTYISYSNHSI

In order of falling z-score:
1. Cc1cc(=O)n2[nH]c(N3C(=O)CCC3=O)nc2n1  1.24
2. COC(=O)C1C(c2ccc(OC)c(OC)c2)NC(c2ccc(OC)c(OC)c2)C(C(=O)OC)S1(=O)=O (centres undefined)  1.22
3. O=C(CCCOc1ccccc1)Nc1nnc(C2CCCO2)s1 (centres undefined)  1.18
4. Nc1nc2n(n1)C(c1ccccc1)CC(c1ccc(F)cc1)N2 (centres undefined)  1.08
5. CC12C(=O)N(c3cccc4cccnc34)C(=O)C1C1C=CC2C1 (centres undefined)  0.818
6. O=C(NCc1ccco1)c1cccc(F)c1  0.795
7. CC1(C(=O)NC2CCCCC2)CCC(=O)N1Cc1cccnc1 (centres undefined)  0.767
8. O=C(NC(=S)Nc1ccc2oc(=O)ccc2c1)c1ccc(-c2cccc(Cl)c2Cl)o1  0.766
9. CC/C(=N/Nc1ccccc1)c1cnnc(-c2ccccc2)n1  0.574
10. CS(=O)(=O)c1ccc2nc(NC(=O)CN3CCN(Cc4ccccc4)CC3)sc2c1  0.494
11. CN(C)S(=O)(=O)c1ccccc1C#N  0.372
12. Cn1c(SCC(=O)OCC(=O)c2ccccc2)nnc1-c1cccs1  0.26
13. CCOC(=O)c1[nH]c(CSc2nnc(-c3ccc(OC)cc3)o2)c(C(=O)OCC)c1C  0.245
14. Cc1ccccc1Cc1c(C)nc2c(C(=O)NCc3ccc4c(c3)OCO4)cnn2c1C  0.227
15. CCCOc1ccc(C2(C(=O)O)CCCC2)cc1  0.219
16. CCn1nccc1C(=O)Nc1ccc(S(=O)(=O)NC23CC4CC(CC(C4)C2)C3)cc1  0.141
17. CC1CCc2c(sc(NC(=O)CN3CCN(C(=O)c4ccco4)CC3)c2C#N)C1 (centres undefined)  0.101
18. O=C(COc1ccc(S(=O)(=O)NC2CCCCC2)cc1)NCc1ccccn1  0.101
19. CN(C)/C=C/C(=O)c1ccccc1F  0.071
20. COc1cc2cc3c(N)c(C(=O)Nc4sc(C)c(C)c4C#N)sc3nc2cc1OC  0.0438
21. CCn1c(Cn2nnc(-c3ccccc3)n2)nnc1SCC(=O)Nc1cccc(C)c1C  0.0396
22. COc1cc(C(=O)NCCCN2CCCC2=O)cc(OC)c1OC  0.0299
23. Brc1ccc(-c2csc(N/N=C/c3ccc4c(c3)OCO4)n2)cc1  0.0227
24. Cc1cc(=O)[nH]c(N/N=C/C2=C(N3CCOCC3)C(=C\c3ccc(Cl)cc3)/CC2)n1  -0.00507
25. Cc1ccc(C)c(NC(=O)Cn2nc(C(F)(F)F)cc2C2CC2)c1  -0.0232
26. CCn1c(=O)n(Cc2ccco2)c(=N)c2c3c(sc21)COC(C)(C)C3  -0.025
27. CC1(C)Cc2c(sc3nn[nH]c(=O)c23)CO1  -0.0436
28. Oc1ccc(Br)cc1-c1cc(-c2ccccc2)n[nH]1  -0.0523
29. CCCCNC(=S)N(C)/N=C/c1ccc(OCC(=O)Nc2ccc(OC)cc2)c(OC)c1  -0.056
30. O=C(Cn1cnc([N+](=O)[O-])c1)NC1CCCC1  -0.0748
31. O=C(Nc1ccc(Cc2ccncc2)cc1)c1ccc(Cl)c([N+](=O)[O-])c1  -0.0949
32. CCOC(=O)c1cc(-c2ccccc2)n(CC(=O)Nc2cccc(OC)c2)c1C  -0.0973
33. O=C(N/N=C/c1cccc(F)c1)c1cc(-c2ccco2)nc2ccccc12  -0.131
34. COc1cc(S(=O)(=O)Nc2ccccn2)ccc1F  -0.166
35. CC1CCc2c(c3ccccc3[nH]c2=O)O1 (centres undefined)  -0.168
36. Cc1ccc(NC2=Nc3ccccc3N3C2=Nc2c(c(C)nn2-c2ccccc2)C3c2ccc(O)c(O)c2)cc1 (centres undefined)  -0.179
37. CC1(C)Cc2c(sc3nc(-c4ccccc4Cl)n(N)c(=O)c23)CO1  -0.232
38. O=C(CSc1nc(-c2ccccc2Cl)ns1)NCc1ccc2c(c1)OCO2  -0.236
39. CC(NC(=O)C1CCC1)c1ccc(Br)cc1 (centres undefined)  -0.264
40. Cc1cccc(C)c1Nc1nnc(SCc2nc3ccccc3s2)s1  -0.281
41. COc1ccc2cc(/C=N/NC(=O)CSCc3ccc([N+](=O)[O-])cc3)c(Cl)nc2c1  -0.344
42. COC(=O)c1[nH]c2c(c1C)C(=O)CC(c1cccs1)C2 (centres undefined)  -0.349
43. COC(=O)c1sc(N)c(C(=O)OC)c1COC(=O)c1c(C)noc1C  -0.374
44. COC(=O)N/N=C\c1c(C)nn(-c2ccccc2)c1Cl  -0.389
45. COc1cc2[nH]c3c(=O)n(CCN(C(C)C)C(C)C)cnc3c2cc1OC  -0.405
46. Cc1ccc(-c2nc3ccccn3c2NCc2ccc3c(c2)OCO3)cc1  -0.47
47. COC(=O)c1cc(NC(=O)CN2CCOCC2)cc(C(=O)OC)c1  -0.474
48. COc1ccccc1CSc1ncc(-c2ccc([N+](=O)[O-])cc2)[nH]1  -0.488
49. CC1C/C(=N\NC(=O)CCc2ccc(S(=O)(=O)N3CCOCC3)cc2)CC(C)(C)C1 (centres undefined)  -0.554
50. COC(=O)c1ccc(CS(=O)(=O)c2ccc(C)cc2)cc1  -0.578
51. O=C(O)c1cc(NCc2c(F)cccc2Cl)ccc1N1CCOCC1  -0.908
52. Cc1cccc(C)c1NC(=O)CSc1nnc(Cn2nnc(-c3ccccc3)n2)n1-c1ccccc1  -0.961
53. CCn1c(SCC(=O)Nc2cc(C)c(Cl)cc2OC)nnc1-c1ccco1  -1.44
54. COc1nc(OC)nc(N2CCC(C(=O)NCc3ccc(F)cc3)CC2)n1  -2.05
